Experimental findings from paper PMC7256200 (Frontiers in Microbiology, 2020) are described below.

The Kd is the constant that tells how readily two partners part at equilibrium.

The target in the assay is T1, AtYoeB toxin (Atu2017) from Agrobacterium tumefaciens, GST-His tag removed (Agrobacterium tumefaciens strC58, UniProt A9CID9 1-89).
T1 sequence: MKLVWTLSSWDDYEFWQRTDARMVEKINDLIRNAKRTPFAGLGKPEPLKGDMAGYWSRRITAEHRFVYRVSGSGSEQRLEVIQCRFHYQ
As to the kind of experiment: BLI. (In general: Biolayer interferometry detects binding as a change in optical thickness at a sensor tip.)

B1: His-AtYefM antitoxin (Atu2018) from Agrobacterium tumefaciens, pET15b construct, His tag kept (natural protein)
chain: MANVRFTEFRQNFATHFDRVLETRAPLLVTRQGKEAVVVLAEGEYESMQETLHLLSNPANASRLRASMGELERGDTIERDPTEE
As for B1, the affinity, expressed as Kd, was 0.653 ± 0.3 nM.
